Test results published in the supplement of paper PMC4466236.
The full ranking holds about 33,000 sequences; the median of “E-score (dimensionless, -0.5 to 0.5)” is about -0.058, and the highest 2% start at about 0.35. The list shows a part of the results.

System: MvaT
Experiment: PBM 8-mer E-score (mean of HK and ME arrays) (E-score (dimensionless, -0.5 to 0.5)); higher = stronger relative binding preference; most listed sequences are background and not binding sites
Experimental: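 Protein binding microarray: GST-tagged full-length MvaT (P. aeruginosa PAO1) bound to two universal double-stranded 60-mer arrays (ME and HK), each with a constant 25-mer primer and a variable 35-mer region covering all 8-mers. The 8-mer E-score (rank-based, range -0.5 to 0.5, >0.45 = specific binding) is the mean of the two arrays.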

Row | Sequence | PBM 8-mer E-score
1 | CCGTCTAC | -0.182
2 | CTTTCAAA | 0.263
3 | CATCATCC | -0.0345
4 | AATGTACA | 0.314
5 | CCTAGTAA | 0.0327
6 | CCATGCGC | -0.238
7 | AATTGGAC | 0.093
8 | ACGCAGTC | -0.327
9 | GGCTACGA | -0.172
10 | AGGACCCA | -0.18
11 | CTCGACCA | -0.111
12 | AACTATAG | 0.236
13 | GGTGCACC | -0.189
14 | CAGAATCA | -0.00147
15 | CGGTCGGC | -0.161
16 | AGAGTTAA | 0.188
17 | GAACCCGC | -0.164
18 | AACGAGGA | -0.202
19 | GGAATTCC | -0.039
20 | TCTAAGCA | 0.132
21 | AATAGTGG | 0.252
22 | AAAAATCT | -0.0904
23 | GCAACCGA | -0.119
24 | GGATGTGA | -0.145
25 | CGAAGTTC | 0.106

Row | Sequence | PBM 8-mer E-score
26 | AACCCGTG | -0.144
27 | AACTTGCC | 0.213
28 | CACCAATG | -0.132
29 | AGAAAAGA | 0.219
30 | GAACTCGA | -0.133
31 | TCTACGCA | -0.13
32 | AGAGTCGG | -0.106
33 | CGTTTAAA | 0.317
34 | GAAGACAC | -0.0042
35 | CCGATGGA | -0.296
36 | GACCTCGC | -0.286
37 | CAGTTTAC | -0.1
38 | AGTTTAGC | 0.132
39 | AATGCACG | -0.0268
40 | AGCCACAA | -0.136
41 | AAGTCACG | -0.0325
42 | ATAATCCC | 0.0407
43 | CAAAATCC | -0.0545
44 | ATAACCAA | 0.242
45 | GCCGTAGA | -0.157
46 | GGTAAGTA | 0.0966
47 | AAAAGCAA | 0.177
48 | ATCCCGAC | -0.101
49 | ATTGGTAG | 0.0602
50 | AGGGGCAG | -0.229

Row | Sequence | PBM 8-mer E-score
51 | ACAAGACA | -0.0679
52 | ACCGATAC | -0.0985
53 | GAATCGCA | -0.138
54 | CGTAGCGC | -0.251
55 | GCTTCTTA | -0.00344
56 | CGTAGTAG | -0.0801
57 | ATTTCGAG | 0.103
58 | ATACGGAG | 0.00916
59 | AATAGCAA | 0.295
60 | ATGCGTTA | 0.0937
61 | ATGCGAAC | 0.0341
62 | GGTCTTTA | 0.0246
63 | AACCTGCT | -0.0689
64 | CCGCGCTC | -0.251
65 | CATTTACG | 0.128
66 | ATCGTTAG | -0.0564
67 | AATCGAGA | 0.0284
68 | ATGCCTAC | -0.0346
69 | GTTTGTCA | 0.195
70 | AGAATTAG | 0.00537
71 | ATAATCTC | 0.337
72 | TGAAGCAA | -0.0937
73 | CCTGACTA | -0.101
74 | ACCTGCGA | 0.0108
75 | GCAGAACC | -0.248

Row | Sequence | PBM 8-mer E-score
76 | CAAATTCG | 0.16
77 | TCAAAAGA | -0.0953
78 | GCCGGTAA | -0.0408
79 | CCGGCCTC | -0.247
80 | CATCTCGA | -0.174
81 | AACTAACT | 0.319
82 | ATAGTTCC | 0.134
83 | ACACGACC | -0.0101
84 | GTAGTGCA | -0.115
85 | AGACTTGG | -0.179
86 | CCATCACG | -0.185
87 | GGCATCAA | -0.276
88 | CAAATAGG | 0.0611
89 | CTGCTCAC | -0.0923
90 | GAACTGTA | 0.204
91 | CTGTCAAC | -0.0827
92 | GACGACCA | -0.176
93 | ACAACATA | 0.316
94 | AATCAGCA | 0.00273
95 | CTGATGGC | -0.204
96 | ATTGTTAG | 0.235
97 | GTATTCTA | 0.112
98 | AATTCGCG | 0.137
99 | AGGATAAA | 0.22
100 | ACCAACGC | -0.0165

Row | Sequence | PBM 8-mer E-score
101 | AGGAAACA | 0.0687
102 | CCTTCTGC | -0.214
103 | AATTTGTA | 0.309
104 | TAGCTCGA | -0.0695
105 | ATTCCGGC | -0.0431
106 | CAAACACC | 0.0703
107 | GATGAGTA | 0.132
108 | CAGCGTCC | -0.2
109 | CAATCTGC | -0.135
110 | GACTCAAA | -0.0301
111 | CTCTAAGA | -0.0191
112 | CTATTATC | 0.263
113 | AACGCTCA | -0.106
114 | CCACTTAG | -0.102
115 | CCTGCCCC | -0.338
116 | CAAACCTC | -0.0187
117 | CGGGATGA | -0.127
118 | CAGTTTAG | 0.0785
119 | CTCAAAAC | 0.0985
120 | CCCTCGTC | -0.263
121 | CGTCCTGA | -0.0672
122 | GATTCACA | 0.108
123 | AAAACCTG | 0.0557
124 | GTCTCAAA | 0.0374
125 | CAAAACCA | 0.0514

Row | Sequence | PBM 8-mer E-score
126 | GAATCTTA | 0.0997
127 | ATAAGTGC | 0.178
128 | GTCTTACA | 0.0145
129 | ACAGCTTC | -0.159
130 | GTGGCTGA | -0.0813
131 | GTAGGGAA | 0.0135
132 | AGCGACCA | -0.13
133 | CTCTGAAA | 0.0466
134 | ATTAAGCC | 0.138
135 | CCGCCGAC | -0.206
136 | GCAAATGC | -0.0563
137 | ATCGAATC | -0.0636
138 | AATTAGGT | 0.318
139 | CGGACGTA | 0.00838
140 | CGTTAGTC | 0.0653
141 | ATCTCCCG | -0.209
142 | ACTAGGAA | 0.0464
143 | AAACGCGG | -0.0874
144 | ATGGCTAA | 0.0518
145 | ATAGCTAA | 0.0897
146 | CTCTACAG | -0.15
147 | CAGTTCTA | 0.0495
148 | AAGATTCT | -0.0458
149 | GGATGTAC | -0.0457
150 | GTTCACGA | -0.0812

Row | Sequence | PBM 8-mer E-score
151 | GCATTCGC | 0.00449
152 | AATGATCA | 0.115
153 | AACGGTAC | -0.0245
154 | CTACTTTA | 0.267
155 | CTCGTGTC | -0.16
156 | TGAGTCAA | 0.00432
157 | AGCCAGCA | -0.152
158 | GCCTCAGC | -0.362
159 | AATTATGC | 0.34
160 | CATCTATA | 0.213
161 | CCGCCCGG | -0.371
162 | GAGCAGTA | 0.0741
163 | GTGTCAAA | 0.146
164 | AAAGGCCG | -0.128
165 | ACGAGACA | -0.114
166 | ATACTTGG | 0.124
167 | GGGGAGTA | -0.087
168 | AATGGGTG | 0.0651
169 | ATCTATGG | -0.0291
170 | CATTCCCG | 0.00248
171 | ACTGTTCT | 0.017
172 | CATTAACC | 0.183
